Data reported in the supplement of paper PMC11417369.
This is one part of the list.

These sequences were tested on PfAP2-HC AP2 domain (GST-tagged) (assay: gcPBM binding intensity (ln(normalized median fluorescence intensity)); higher = stronger DNA binding).
In short: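 An Agilent 4 × 180k array of primer-extended double-stranded 36-bp intergenic genomic probes, with negative controls, was incubated for 1 h with GST-tagged P. falciparum DNA-binding domains expressed in E. coli. Alexa488 anti-GST antibody detected bound protein, scanned at 488 nm. Binding intensity is the highest Masliner-normalised natural-log median intensity across replicate spots of either probe orientation.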
In the case of “CAACAATTTCGTCATACACACATTCAGAATATAGAT [CACACA_site7166]”, the “gcPBM binding intensity (ln)” value is reported as 9.88.
In the case of “ACCTGAAGAGTCAAACGTACAAATATTATAAAATGA [XGTACX_site3188]”, the “gcPBM binding intensity (ln)” value is reported as 9.52.
For “TTAATACATTAAATATGTACTTATATATCTCAACTA [XGTACX_site3997]”, the “gcPBM binding intensity (ln)” value was 9.61.
In the case of “GTTATATTTTTTTTTTGTACATAATATTGTATTGAC [XGTACX_site6338]”, the “gcPBM binding intensity (ln)” value is reported as 9.82.
“AGTAGCATATTCTATTGTACATATATATATATATAT [XGTACX_site2980]” was tested, and the “gcPBM binding intensity (ln)” value was 9.79.
For “ATTAAAAACGGGTGTACACATATATAAATATATATA [CACACA_site4539]”, the “gcPBM binding intensity (ln)” value was 9.96.
For “ATATGTATATATGTATGTACGTACAAATTGTTGTAA [XGTACX_site8832]”, the “gcPBM binding intensity (ln)” value was 10.
In the case of “TACAAAATAACTAGCACACATATGTATAAACCTATA [CACACA_site3718]”, the “gcPBM binding intensity (ln)” value is reported as 9.9.
With “TGTATAAAGATATATACACACATATTTATTTATATA [CACACA_site6493]” the “gcPBM binding intensity (ln)” value was 9.72.
For “TATATACAAAAATGCACACGAAAAGTAATATATATA [CACACA_site4173]”, the “gcPBM binding intensity (ln)” value was 9.96.
In the case of “TATATAAAAATCAATTGTACTTTTTTTTTTTTTTTT [XGTACX_site7327]”, the “gcPBM binding intensity (ln)” value is reported as 9.28.
With “ATATATAAAATTATATGTACATATATAATATATATA [XGTACX_site529]” the “gcPBM binding intensity (ln)” value was 9.61.
“TATATATATATGTGCACACATATATAATATGTATAA [CACACA_site715]” was tested, and the “gcPBM binding intensity (ln)” value was 10.2.
In the case of “AAATAACACATATATACACACATATAACTATAATAT [CACACA_site7298]”, the “gcPBM binding intensity (ln)” value is reported as 10.1.
“TAGAACAAATAAAACACACACATATATATATATATG [CACACA_site2768]” was tested, and the “gcPBM binding intensity (ln)” value was 10.5.
“TCATCCGTTTTAAGAAGTACATATTTGAACATATAA [XGTACX_site8040]” was tested, and the “gcPBM binding intensity (ln)” value was 9.25.
In the case of “CATAGGATTATACTTTTGGAATATTATTAAATATGT [XGTACX_negctrl_site75]”, the “gcPBM binding intensity (ln)” value is reported as 9.49.
In the case of “TTTATTTTTTAATGTTGTACAATGTTGTTTAATCAA [XGTACX_site6489]”, the “gcPBM binding intensity (ln)” value is reported as 9.65.
“TTTTTTTCTTTTCAAACACACAATTGGTATATATTA [CACACA_site3320]” was tested, and the “gcPBM binding intensity (ln)” value was 9.81.
For “ACATGTCAAACATTTGCACACAAAAAAATAAAAATT [CACACA_site691]”, the “gcPBM binding intensity (ln)” value was 9.93.
For “AAAAAAAAAAAAAACACACACACAATAGTATATAAA [CACACA_site957]”, the “gcPBM binding intensity (ln)” value was 10.3.
In the case of “TTGTTACTGTTTTGGTGTACAAAAAAAAAAAATATA [XGTACX_site5762]”, the “gcPBM binding intensity (ln)” value is reported as 9.61.
“TACTTACTTACTTACTCACACACATATACAAAGAAA [CACACA_site3348]” was tested, and the “gcPBM binding intensity (ln)” value was 10.1.
“AATACAGATAATACAACACACAAGTAATATAAACCT [CACACA_site5900]” was tested, and the “gcPBM binding intensity (ln)” value was 10.2.
With “TATATATATTTTTATGCACACACAAAGAAAATTTTC [CACACA_site8931]” the “gcPBM binding intensity (ln)” value was 9.83.
In the case of “ATCACAAAATGGAATGTTCTATGATATATATGTATA [XGTACX_negctrl_site460]”, the “gcPBM binding intensity (ln)” value is reported as 9.54.
For “TGTAAATATTTATTCACACATAATCAATTAGAAAAA [CACACA_site5944]”, the “gcPBM binding intensity (ln)” value was 9.58.
“GATGATTATATATATACGCACACTTTTTTTTTTTTT [CACACA_site2652]” was tested, and the “gcPBM binding intensity (ln)” value was 9.94.
With “TATAAATACAGATACACACACACACCGATATATATA [CACACA_site5271]” the “gcPBM binding intensity (ln)” value was 10.4.
“AATATATAAATCTATTGTACATAAAGAGGATAATAA [XGTACX_site1022]” was tested, and the “gcPBM binding intensity (ln)” value was 9.75.
For “ATATATATATATATATGTACATATTTATTTATTTAT [XGTACX_site5161]”, the “gcPBM binding intensity (ln)” value was 9.65.
For “AGCACAGACTAATAAACACACACATATATATATATA [CACACA_site8021]”, the “gcPBM binding intensity (ln)” value was 10.5.
With “CTCATTCTTTTTTGATGTACTTTTTTTTTTTAAGTT [XGTACX_site2875]” the “gcPBM binding intensity (ln)” value was 9.53.
With “TTTTATTAATATTATTTATCTTCTCAAAAGATATAT [XGTACX_negctrl_site202]” the “gcPBM binding intensity (ln)” value was 9.48.
“TATCTTATATTTACACGTACGTAGAATTTATAAGTT [XGTACX_site3460]” was tested, and the “gcPBM binding intensity (ln)” value was 9.55.
For “CACACGTATAAATATACACACTAAAATACACGCACA [CACACA_site7876]”, the “gcPBM binding intensity (ln)” value was 9.95.
With “AAAAGAGAAACATTTACACACAAATATAGATATATG [CACACA_site1027]” the “gcPBM binding intensity (ln)” value was 9.86.
For “TTCAATTAAAAAATATGTACGCATAAATTGATATAT [XGTACX_site4289]”, the “gcPBM binding intensity (ln)” value was 9.55.
“TTGTATAATTTAACAAGTACAAAATAAATTTGTATA [XGTACX_site5505]” was tested, and the “gcPBM binding intensity (ln)” value was 9.65.
With “TTTTATGGAAAGTGTTGTACATATTTTTGTATATGT [XGTACX_site7356]” the “gcPBM binding intensity (ln)” value was 9.77.
In the case of “ATAGTATACGGACACACACACACACCGATATATATA [CACACA_site5032]”, the “gcPBM binding intensity (ln)” value is reported as 11.2.
With “TATAACAGGAATTATATATATATATATATATATTAT [CACACA_negctrl_site911]” the “gcPBM binding intensity (ln)” value was 9.52.
With “CTTTTTTTAGTTAGGTGTACAATTTGTTATTATTAG [XGTACX_site1507]” the “gcPBM binding intensity (ln)” value was 9.7.
With “TTTTTTTTTTTTTTTTGTACATATTTCTTATAAGTG [XGTACX_site6459]” the “gcPBM binding intensity (ln)” value was 9.19.
“TTTAATATGTATTTTTTTTTTTTTTTTTTTTTTTTT [XGTACX_negctrl_site440]” was tested, and the “gcPBM binding intensity (ln)” value was 9.24.
With “TTTTATATCTAGTTTATATTTCTTAAATAAATAAAT [GTGCAC_negctrl_site245]” the “gcPBM binding intensity (ln)” value was 9.28.
With “AACATATAAATGATATGTACACACATTTATATATAT [XGTACX_site7364]” the “gcPBM binding intensity (ln)” value was 9.85.
For “CAAATTAAATATTATGCATGTACCAAACATCCTACC [TGCATGCA_site35]”, the “gcPBM binding intensity (ln)” value was 9.66.
With “TAATACAAAAAGAAAAGTACATGTTAATTATTATTT [XGTACX_site2196]” the “gcPBM binding intensity (ln)” value was 9.54.
In the case of “GGAAGAATATATAGGACACACATACAATAATAAATA [CACACA_site6124]”, the “gcPBM binding intensity (ln)” value is reported as 10.
With “TTTTTTTTTTTTTTTTTGCAATATATTTTAAAAAAG [CACACA_negctrl_site25]” the “gcPBM binding intensity (ln)” value was 8.69.
In the case of “AACTTCTTTTTTATAACACACAAAATATAAATACAA [CACACA_site4313]”, the “gcPBM binding intensity (ln)” value is reported as 9.58.
With “TTTTTTTTTTTTTTCTGTACTTAAAAAGGGGGAGAA [XGTACX_site3799]” the “gcPBM binding intensity (ln)” value was 9.55.
In the case of “CAAACATGTTCAAATTGTACAATAGAAAATATATAT [XGTACX_site1557]”, the “gcPBM binding intensity (ln)” value is reported as 9.69.
In the case of “TTGAAGTTTGATTGTAGTACGAATTGGTAGTTTTTT [XGTACX_site6854]”, the “gcPBM binding intensity (ln)” value is reported as 9.67.
In the case of “CAAATACATGGACACACACACATATACAGATATATA [CACACA_site5854]”, the “gcPBM binding intensity (ln)” value is reported as 10.9.
